# Assay results: a collection of fitness landscapes (doi:10.1126/science.1257360)
# This is one part of the list.
# B1: PhoQ; a variant is named by its letters at X, in order, P23837 (parent)
# chain: MKKLLRLFFPLSLRVRFLLATAAVVLVLSLAYGMVALIGYSVSFDKTTFRLLRGESNLFYTLAKWENNKLHVELPENIDKQSPTMTLIYDENGQLLWAQRDVPWLMKMIQPDWLKSNGFHEIEADVNDTSLLLSGDHSIQQQLQEVREDDDDAEMTHSVAVNVYPATSRMPKLTIVVVDTIPVELKSSYMVWSWFIYVLSANLLLVIPLLWVAAWWSLRPIEALAKEVRELEEHNRELLNPATTRELTSLVRNLNRLLKSERERYDKYRTTLTDLTHSLKTPLXXLQXXLRSLRSEKMSVSDAEPVMLEQISRISQQIGYYLHRASMRGGTLLSRELHPVAPLLDNLTSALNKVYQRKGVNISLDISPEISFVGEQNDFVEVMGNVLDNACKYCLEFVEISARQTDEHLYIVVEDDGPGIPLSKREVIFDRGQRVDTLRPGQGVGLAVAREITEQYEGKIVAGESMLGGARMEVIFGRQHSAPKDE
# Variants of: B1
# Experiment: enrichment ratio after two sorts for PhoP signalling (ratio (wild type AVST 3.29)); higher = more functional
# Settings: with PhoP (E. coli)
row,Variant,enrichment ratio
1,VKTN,≤ 0.25
2,KSNM,≤ 0.25
3,YDMC,≤ 0.25
4,YSKH,≤ 0.25
5,NWST,≤ 0.25
6,HWNY,≤ 0.25
7,NPNV,≤ 0.25
8,NRYY,≤ 0.25
9,KLIM,≤ 0.25
10,MVQY,≤ 0.25
11,KCPQ,≤ 0.25
12,QEAL,≤ 0.25
13,GPAW,≤ 0.25
14,RPFH,≤ 0.25
15,VQPW,≤ 0.25
16,YQAA,≤ 0.25
17,PLHD,≤ 0.25
18,DGNC,≤ 0.25
19,MKRT,≤ 0.25
20,KHNL,≤ 0.25
21,VTPM,≤ 0.25
22,AVSA,5.47
23,RQLR,≤ 0.25
24,RRYR,≤ 0.25
25,YMWN,≤ 0.25

row,Variant,enrichment ratio
1,EKPL,≤ 0.25
2,HWHT,≤ 0.25
3,VCVG,≤ 0.25
4,PQYI,≤ 0.25
5,TWYD,≤ 0.25
6,SHSN,≤ 0.25
7,HTPR,≤ 0.25
8,RKDA,≤ 0.25
9,CTFT,≤ 0.25
10,RSVN,0.329
11,PDQS,≤ 0.25
12,PPSV,≤ 0.25
13,DMTM,≤ 0.25
14,AHFR,≤ 0.25
15,QGYT,1.7
16,DMDR,≤ 0.25
17,KTLN,≤ 0.25
18,KMPV,≤ 0.25
19,SDIA,≤ 0.25
20,PKGG,≤ 0.25
21,LGEK,≤ 0.25
22,PFFF,≤ 0.25
23,GVDD,≤ 0.25
24,ECNR,≤ 0.25
25,QMYY,≤ 0.25

row,Variant,enrichment ratio
1,DWSW,≤ 0.25
2,DLGF,≤ 0.25
3,CTLI,≤ 0.25
4,SSQP,≤ 0.25
5,THTK,≤ 0.25
6,IPHK,≤ 0.25
7,PRWL,≤ 0.25
8,VFNI,≤ 0.25
9,EQFC,≤ 0.25
10,GSTH,≤ 0.25
11,NLTM,≤ 0.25
12,VEDR,≤ 0.25
13,DPKI,≤ 0.25
14,VTEA,≤ 0.25
15,EFIN,≤ 0.25
16,HGMF,1.21
17,LKFG,≤ 0.25
18,IPTE,≤ 0.25
19,MIGC,41.4
20,VRLC,≤ 0.25
21,FYWI,≤ 0.25
22,PTMI,≤ 0.25
23,PKAK,≤ 0.25
24,SACG,8.77
25,RCED,≤ 0.25

row,Variant,enrichment ratio
1,GSIK,≤ 0.25
2,RETW,≤ 0.25
3,DHQA,≤ 0.25
4,KKVM,≤ 0.25
5,ITIM,≤ 0.25
6,AHIV,≤ 0.25
7,ICNP,≤ 0.25
8,NGRI,≤ 0.25
9,RPMG,≤ 0.25
10,HTKW,≤ 0.25
11,MNDR,≤ 0.25
12,RIIP,≤ 0.25
13,SVLA,7.25
14,YWDH,≤ 0.25
15,TWHC,≤ 0.25
16,VTFV,≤ 0.25
17,VPLL,≤ 0.25
18,KAIS,≤ 0.25
19,ADIS,≤ 0.25
20,VHHS,≤ 0.25
21,VSCV,7.54
22,LCVG,≤ 0.25
23,MRDF,≤ 0.25
24,DNWI,≤ 0.25
25,RTNR,≤ 0.25

row,Variant,enrichment ratio
1,LYCI,≤ 0.25
2,TCHT,≤ 0.25
3,GEQP,≤ 0.25
4,KLGE,≤ 0.25
5,KTWS,≤ 0.25
6,YGLD,≤ 0.25
7,HPQV,≤ 0.25
8,WIHT,≤ 0.25
9,WQVM,≤ 0.25
10,RFFW,≤ 0.25
11,AERP,≤ 0.25
12,FFLD,≤ 0.25
13,MLDS,≤ 0.25
14,VSNL,≤ 0.25
15,TSTN,4.72
16,HFYA,≤ 0.25
17,EYFL,≤ 0.25
18,MDME,≤ 0.25
19,IDPL,≤ 0.25
20,VGDG,≤ 0.25
21,YTIP,≤ 0.25
22,NTTA,≤ 0.25
23,RTPQ,≤ 0.25
24,VDKE,≤ 0.25
25,EPIQ,≤ 0.25

row,Variant,enrichment ratio
1,ADRL,≤ 0.25
2,QIMV,≤ 0.25
3,KEAS,≤ 0.25
4,RSPY,≤ 0.25
5,PFWN,≤ 0.25
6,VVSM,0.673
7,EPTT,≤ 0.25
8,GGPM,≤ 0.25
9,FKTT,≤ 0.25
10,VHTA,≤ 0.25
11,AQAS,18.6
12,TDCL,1.96
13,AKAW,≤ 0.25
14,WKTP,≤ 0.25
15,IGFM,≤ 0.25
16,AHSC,≤ 0.25
17,SMDY,≤ 0.25
18,QFDF,≤ 0.25
19,MPWG,≤ 0.25
20,VQRV,≤ 0.25
21,YKQI,≤ 0.25
22,SVWY,≤ 0.25
23,LFGS,≤ 0.25
24,SPHW,≤ 0.25
25,APMH,≤ 0.25

row,Variant,enrichment ratio
1,IYHC,≤ 0.25
2,KTWC,≤ 0.25
3,ATVL,4.07
4,TKPE,≤ 0.25
5,LAWE,≤ 0.25
6,ACAC,≤ 0.25
7,SCHS,≤ 0.25
8,LMWQ,≤ 0.25
9,HTGI,≤ 0.25
10,THQM,≤ 0.25
11,MPIA,≤ 0.25
12,QPEA,≤ 0.25
13,EALE,≤ 0.25
14,RDRI,≤ 0.25
15,YITT,0.342
16,IFWY,≤ 0.25
17,LRVM,≤ 0.25
18,MTYQ,2.5
19,TTFK,≤ 0.25
20,DEKH,≤ 0.25
21,RVKR,4.54
22,LQSY,≤ 0.25
23,AECK,≤ 0.25
24,YYQV,≤ 0.25
25,MRFM,≤ 0.25

row,Variant,enrichment ratio
1,NCRT,≤ 0.25
2,WFYP,≤ 0.25
3,NTEH,≤ 0.25
4,IDMA,≤ 0.25
5,ADNV,≤ 0.25
6,LEAS,1.71
7,FKFQ,≤ 0.25
8,YPQV,≤ 0.25
9,SAID,≤ 0.25
10,STCW,9.07
11,NFDV,≤ 0.25
12,SNEF,≤ 0.25
13,WGLI,13.6
14,HQFL,≤ 0.25
15,RVST,≤ 0.25
16,QRRQ,≤ 0.25
17,IGVA,≤ 0.25
18,IPQS,≤ 0.25
19,DQHA,≤ 0.25
20,TDAD,≤ 0.25
